Measured values as given in the RNAGym collection of RNA variant scans (doi:10.1101/gad.245936.114).
Variants at the floor of the assay are shown more often than the library holds them.

B1: tRNA (parent)
chain: CUCUCGGUAGCCAAGUUGGUUUAAGGCGCAAGACUUUAAUUUAUCACUACGAAAUCUUGAGAUCGGGCGUUCGACUCGCCCCCGGGAGAUUUUUUCCUCGAGCAA

Variants of: B1
Experiment: nonsense suppression (GFP-seq) (ratio to wild type); higher = more function; SUP4oc tRNA, yeast GFP reporter sort-seq
Method in brief: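 Sorted GFP/RFP bins of yeast were each Illumina-sequenced with a phred ≥30 cutoff; the cells held a genome-integrated ochre-suppressor tRNA variant from a library with ~3% random mutations, a galactose-driven GFP ochre reporter, and RFP. Culture was in raffinose/galactose medium containing 80 mg/L adenine. Nonsense suppression, termed GFPSEQ, is the median GFP/RFP of the bins weighted by each variant's estimated cell share per bin, relative to the unmutated parent tRNA, for variants reaching ≥100 reads and ≥30 cells.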

Point of comparison: CUCUCGGAAGCCAAGUUGGUUUAAGGCGCAAGACUUUAAUUUAUCACUACGAAAUCUUGAGAUCGGGCGUUCGACUCGCCCCCGUGAGAUUUUUUCCUCGAGCAA [U8A G85U], nonsense suppression 0.071. Against it:
- CUCUCGGAAGCCAAGUUGGUAUAAGGCGCAAGACUUUAAUUUAUCACUACGAAAUCUUGAGAUCGGGCGUUCGACUCGCCCCCGGGCGAUUUUUUCCUCGAGCAA [U8A U21A A87C] — lower, ≤ 0.026
- CUCUCGGAAGCCAAGUGGGUUUAAGGCGCAAGACUUUAAUUUAUCACUACGAAAUCUUGAGAUCGGUCGUUCGACUCGCUCCCGGGAGAUUUUUUCCUCGAGCAA [U8A U17G G67U C80U] — lower, ≤ 0.026
- CUCUCGGCUGCCAAGUUGGUUUAAGGCGCAAGACUUUAAUUUAUCACUACGAAUUCUUGAGAUCGGGCGUUCGACUCGCCCCCGGGAGAUUUUUUCCUCGAGCAA [U8C A9U A54U] — lower, ≤ 0.026
- CUCUCGGAAGCCAAGUUGGUAUGAGGUGCAAGACUUUAAUUUAUCACUACGAAAUCUUGAGAUCGGGCGUUCGACUCGCCCCCGGGAGAUUUUUUCCUCGAGCAA [U8A U21A A23G C27U] — lower, ≤ 0.026
- CUCUCGGCAGCCCAGUUGGUCUAAGGCGCAAGACUUUAAUUUAUCACUACGAAAUCUUGAGAUCGCGCGUUCGACUCGCCCCUGGGAGUUUUUUUCCUCGAGCAA [U8C A13C U21C G66C C83U A89U] — lower, ≤ 0.026
- CUCUCGGAAGCCAAGUUGGUUUAAGGCGCAAGACUUUAAUUUAUCACUACGAAAUCUUGAGAUCGGGCGUUCGACUCGCCCCCGCGAGAUUUUUUCCUCGAGCAA [U8A G85C] — lower, ≤ 0.026
- CUCUCGGAAGCCAAGUUGGUUUAAGGCUUAAGACUUUAAUUUAUCACUACGAAAUCUUGUGAUCGGGUGUUCGACUCGCCCGCGGGAGAUUUUUUCCUCGAGCAA [U8A G28U C29U A60U C68U C82G] — lower, ≤ 0.026
- CUCUCGGAAGCCAAGUUGGUCUAAGGCGCAUGACUUUAAUUUAUCACUACGAAAACUUGAGAUCGGACGGUCGACUCGCCCCCGGGAGAUUUUUUCCUCGAGCAA [U8A U21C A31U U55A G67A U70G] — lower, ≤ 0.026
- CUCUCGGAAGCCAAGUUGGUUUAAGGCGCAAGACUUUAAUUUAUCACUACGAAAUCUUGAGACCCGGCGUUCGACGCGCCCCCGGGAGAUUUUUUCCUCGAGCAA [U8A U63C G65C U76G] — lower, ≤ 0.026
- CUCUCGGAAGCCAAGUUGGUCUAAGGCGCAAGGCUUUAAUUUAUCACUACGAAAUCUUGAGAUCGGGGGUUCGACUCGCCCCUGGGAGAUUUUUUCCUCGAGCAA [U8A U21C A33G C68G C83U] — lower, ≤ 0.026
- CUCUCGGCUGUCAAGUUGAUUUAAGGCGCAAGACUUUAAUUUAUCACUACGAAGUCUUGAGAUCGGGUGUUCGGCUCGCCCCCGGGAGAUUUUUUCCUCGAGCAA [U8C A9U C11U G19A A54G C68U A74G] — lower, ≤ 0.026
- CUCUCGGAAGCCAAGUUGGUUUAAGGCGCAAGACUUUAAUUUAUCACUACGAAAUCUUGAGAUCGGGCGUUCGACUCGCCCCCGGGAUAUUUUUUCCUCGAGCAA [U8A G88U] — lower, ≤ 0.026
- CUCUCGGAAGCCAAGUUGGCUUAAGGCGCAAGACUUUAAUUUAUCACUACGAAAUCUUGAGAUGGGGCGUUCGACUCGCCCCCGGGAGAUUUUUUCCUCGAGCAA [U8A U20C C64G] — lower, ≤ 0.026
- CUCUCGGAAGCCAAGUUGGUUUAAGGCGCAAGACUUUAAUUUAUCACUACGAAAGCUUGAGAUCGGGCGUUCGACUCGCCCCCGGGAGAUUUUUUCCUCGAGCAA [U8A U55G] — lower, ≤ 0.026
- CUCUCGGAAGCCAAGUUGGUUUAAGGCGCAAGACUUUAAUUUAUCACUACGAAACCUUGAGAUCGGGCGUUCGACUCGCCCCCGGGAGAUUUUUUCCUCGAGCAA [U8A U55C] — lower, ≤ 0.026
- CUCUCGGAAGCCAAGUUGGUGUAAGGCGCAAGACUUUAAUUUAUCACUACGAAAUCUUGAUAUCGGGCGUUCGACUCGCCCCCGGGAGAUUUUUUCCUCGAGCAA [U8A U21G G61U] — lower, ≤ 0.026
- CUCUCGGAAGCCAAGUUGGUUUAAGGCGCAAGACUUUAAUUUAUCACUACGAAAUCUUGAGAUCGGCCGUGCGACUCGCCCCCGGGAGAUUUUUUCCUCGAGCAA [U8A G67C U71G] — lower, ≤ 0.026
- CUCUCGGAAGCCAAGUUGGUAUAAGGCGCAAGACUUUAAUUUAUCACUACGAAAUCUUGAGAUCGGGCGUUCGACUCGCCCCCGGGAGAUUUUUUCCUCGAGCAA [U8A U21A] — lower, ≤ 0.026
- CUCUCGGAAGCCAAGUUGGUUUAAGGCGCAAGACUUUAAUUUAUCACUACGAAAUCUUGACAUCGGGCGUUCGACUCGCCCCCGGGAGAUUUUUUCCUCGAGCAA [U8A G61C] — lower, ≤ 0.026
- CUCUCGGCAGCCGAGUUGGUUUAAGGCGCAAGACUUUAAUUUAUCACUACGAAAUCUUGAGAUCGGGCGUUCGACUCGCCACCGGGAGAUUUUUUCCUCGAGCAA [U8C A13G C81A] — lower, ≤ 0.026
- CUCUCGGAAGCCAAGGUGGUUUAAGGCGCAAGACUUUAAUUUAUCACUACGAAAUCUUGAUAUCGGGCGUUCGACUCGCCCUCGGGACAUUUUUUCCUCGAGCAA [U8A U16G G61U C82U G88C] — lower, ≤ 0.026
- CUCUCGGAAGCCAAGUUGGUCUAAGGCGCAAGACUUUAAUUUAUCACUACGAAAUAUUGAGAUCGGGCGUUCGACUCGCGCCCGGGAGAUUUUUUCCUCGAGCAA [U8A U21C C56A C80G] — lower, ≤ 0.026
- CUCUCGGAAGCCAAGUUGGUUUAAGGCGCAAGACUUUAAUUUAUCACUACGAAAUCUUGAGAUCAGACGUUCGCCUCGCCCCCGGGUGAUUUUUUCCUCGAGCAA [U8A G65A G67A A74C A87U] — lower, ≤ 0.026
- CUCUCGGAAGCCAAGUUGGUUUAAGGCGCAAGACUUUAAUUUAUCACUACGAAAUCUUGAGAUCGGGCGUUCGACUCUCCCCCGGGAGAUUUUUUCCUCGAGCAA [U8A G78U] — lower, ≤ 0.026
- CUCUCGGAAGCCAAGUUGGUUUAAGGCGCAAGACUUUAAUUUAUCACUACGAAAUCUUGAGAUCGGGCGUUCGACUCCCCCCCGGGAGAUUUUUUCCUCGAGCAA [U8A G78C] — lower, ≤ 0.026
- CUCUCGGAAGCCAAGUUGGAUUACGGCGCAAGACUUUAAUUUAUCACUACGAAGUCUGGAGAUCGGGCGUUCGACUCGCCCCCGGGAGAUUUUUUCCUCGAGCAA [U8A U20A A24C A54G U58G] — lower, ≤ 0.026
